Results published in the RNAGym collection of RNA variant scans (doi:10.7554/elife.90254).
Read counts are not given, so values of variants with three or more changes are uncertain.

B1: OR4K15 (parent)
chain: GUUAACGGUCAUAGGCCAUGGAAACUAGGAGCACCAUUUCGCUGCCAGUGAAGAAAUGAACAAAGAAAAUCUGGGCCAGGCAGGCAUCAAAAGAAAUAGUCUUGCGCUCAACCAGAAAGUCUGUAAUCAUUUUAAGGGUA

Variants of: B1
Assay: self-cleavage, relative activity (ratio to wild type); higher = more cleavage; in vitro, sequencing; the parent is a self-cleaving ribozyme
A24G A62G U130C gave a self-cleavage of 1.27. For G41U A51U A68U U102C A117G, the self-cleavage was 2.67. U43A A89G A116G gave a self-cleavage of 1.32. A24C A68G A95G gave a self-cleavage of 2.31. Variant U2A G74U U108C has a self-cleavage of 0.04. For A66G A68G U102C, the self-cleavage was 1.67. A24G C40U A47U showed a self-cleavage of 0.9. In the case of A51U A55G A114G, the self-cleavage is reported as 0.88. Variant U43C A51U A69G has a self-cleavage of 0.82. Work on G21A A30G A68G A69U A95G yielded a self-cleavage of 1.66. A64G A86G U139A gave a self-cleavage of 1.42. Variant U9C G20A A60G has a self-cleavage of 1.33. G53U A64G A118G U122C A125G gave a self-cleavage of 0.85. Variant A86G A89C G137A has a self-cleavage of 0.57. For A59U A82U A111G A125G, the self-cleavage was 0. With A95G A111G U122C U132C the self-cleavage was 0. Work on A69G A91G U97C U103C U131C yielded a self-cleavage of 0.16. A22G A51U A52G U87C showed a self-cleavage of 1.82. For A5G A36C A86G, the self-cleavage was 0.88. Work on A18G U130A U131C yielded a self-cleavage of 0.52. U2C C6U A18U A54U showed a self-cleavage of 1.02. For A23C G44A A66U U100A, the self-cleavage was 0.59. With C34G A51G U131C the self-cleavage was 1.11. A5U U12C A18G U43C A62C gave a self-cleavage of 1.18. A18C A51G A62G A118G gave a self-cleavage of 0.42. U3A A22G A69U U132C showed a self-cleavage of 1.31. For A22G A30G U72C U120C, the self-cleavage was 0.17. For U37G A64G U102C, the self-cleavage was 2.05. For A22C A55G A67U A114G U130C, the self-cleavage was 0.55. U39C A69G A114G showed a self-cleavage of 0.22. Variant U9C U49C A56G A110U has a self-cleavage of 0.82. Work on C16G A91G U108C U124A yielded a self-cleavage of 0.03. With A30G G44U A47U A114G U127C the self-cleavage was 0.14. In the case of A54G A68C U130C, the self-cleavage is reported as 1.73. For A13G U57C A66G, the self-cleavage was 0.25. U57C A95G C107U A117G gave a self-cleavage of 0.01. Work on A18G U57C A92G G137U yielded a self-cleavage of 0.35. A30G A91G U124C U132A showed a self-cleavage of 0.89. With U43C A51G A78U U122C the self-cleavage was 0.32. A54G A59U A114G showed a self-cleavage of 0.11. A51U A62G U102C showed a self-cleavage of 0.91. With C25G A51G A68G A117G U120C the self-cleavage was 0.85. Variant G50C A64G G83A U131C has a self-cleavage of 2.28. With A13G U57C A62G U72A A91G A92G A118G the self-cleavage was 0.07. In the case of U2A U9G U70C A91G U122C, the self-cleavage is reported as 0.22. With A23U G53A A64G U72C the self-cleavage was 0.34. For U9C U39C U43C U57C U70C U132C, the self-cleavage was 0.65. For A69G U87C C109U, the self-cleavage was 0.14. For U37C A47G A111G A135G, the self-cleavage was 0.01. A78G A96G A129G showed a self-cleavage of 0.11. Variant U37C U39C C105U A117U A129G has a self-cleavage of 0. In the case of A23G A62G A118G A129G, the self-cleavage is reported as 0.65. Variant A22U C46U A67U C88A has a self-cleavage of 2.13. U38G A55G A98G showed a self-cleavage of 1.5. Variant A62G U102C U103C has a self-cleavage of 0.46. G7U A62G A64G gave a self-cleavage of 0.99. Work on U12C U37C A118G yielded a self-cleavage of 0.75. For A55U A59C U100C, the self-cleavage was 2.37. Variant G50A U87C A94G C113U has a self-cleavage of 0.1. In the case of C42U A63U A96G U108C, the self-cleavage is reported as 0.02. With A27G U100C C128U U132C the self-cleavage was 2.04. A36G U38C A52G showed a self-cleavage of 1.45. Variant A51G A82U C88A A95G has a self-cleavage of 0.22. With G21A U38C U49C A59G the self-cleavage was 1.25. With A55G U103C A126G the self-cleavage was 0.3. Work on A82G G106A A129C yielded a self-cleavage of 0. A59G A62G U120A A129G gave a self-cleavage of 1.76. A59G A116G U130C gave a self-cleavage of 0.16. A23G A24C A68G showed a self-cleavage of 1.34. In the case of U87C A95U A117U, the self-cleavage is reported as 0.95. In the case of U2C A52G U103C, the self-cleavage is reported as 0.56. Work on U39A A129U A140G yielded a self-cleavage of 1.71. Variant A5G U37C U122C has a self-cleavage of 1.32. For A36G A64C A67G A90G A98G, the self-cleavage was 0.82. U72C G74U U120A gave a self-cleavage of 0.11. Variant A22G A51G A56G A67G A69U U102C U122C has a self-cleavage of 0.87. With U37C A62G U70C A140G the self-cleavage was 0.48. With U57C A117G A118G U127C the self-cleavage was 0.52. For U19G U39C U49A A69G A125U A126G, the self-cleavage was 0. In the case of A52G A62G A92G U122C, the self-cleavage is reported as 0.48. Variant A30G A60G A96G has a self-cleavage of 0.38. A30G U39C A68G U70C U122C gave a self-cleavage of 0.63. A60U A96U U103C A134U showed a self-cleavage of 1.37. A36C A60G A67G A69G gave a self-cleavage of 1.16. For A30G A47U A86U A92G, the self-cleavage was 1.39. In the case of A22G A33G U97C, the self-cleavage is reported as 0.3. A22G A30G G44A A59G gave a self-cleavage of 1.74. G7U A36U A110G G136A gave a self-cleavage of 0.25. U37C A89C A134G showed a self-cleavage of 1.2. Variant A5G A13U A24G U100C has a self-cleavage of 1.7. With A30G A90G A126G the self-cleavage was 1.39. Variant U12C U38A G83U U87C U131C has a self-cleavage of 0.46. Variant G1A A36U A90G A125G A140U has a self-cleavage of 0.11. With U37C A52G G65A A66G G74A the self-cleavage was 0.19. Work on A67U A95G A114G A116G yielded a self-cleavage of 1.03. A110G A118G U122C gave a self-cleavage of 0.13. U49C A60U U72C U103A A117G showed a self-cleavage of 0.1. Variant C40U A96G A126G has a self-cleavage of 1.3. With C32A U43C A68G A114G A134G the self-cleavage was 0.31. In the case of U19C A126G U130C, the self-cleavage is reported as 0.28. U26A U37C A125G gave a self-cleavage of 0.55. A23G A64G A96G A98G U103C showed a self-cleavage of 0.09. With A47G U72C A90G the self-cleavage was 0.18. In the case of G50A A59G A62G, the self-cleavage is reported as 0.96. A22G U108C A134G gave a self-cleavage of 0. In the case of U70C C107A A114U A116G U122C, the self-cleavage is reported as 0. C35G U38A A56G A82U U102A A118G showed a self-cleavage of 0.18. A22G A60G G119U showed a self-cleavage of 1.69. Variant U2C A4G A51G A52G A56G has a self-cleavage of 1.14. A4G U87C A92G U127C gave a self-cleavage of 1.05. With U43A A60G U108C the self-cleavage was 0.02. Variant A36G A47G A67G A89G has a self-cleavage of 1.04. Variant A92G U132C A134U has a self-cleavage of 1.08. Work on U9C U38C U43C A51G U87C A96G U97C U127C yielded a self-cleavage of 1.08. For A13G G75C A89U U132A, the self-cleavage was 0.17. Variant A66G A96G U108C A111U A125G has a self-cleavage of 0. Variant A47C U49C A90G A94G C105A has a self-cleavage of 0.01. Variant U57C U87C A140G has a self-cleavage of 1.6. In the case of A52G A60G U127C, the self-cleavage is reported as 0.81. For U19C A24G A51U A54G U100C, the self-cleavage was 1.21. U38A A52G A92G gave a self-cleavage of 1.19. A23G A54G A116G gave a self-cleavage of 0.21. In the case of G1A A22G U43A A47G A78C G106A, the self-cleavage is reported as 0.03. Work on A54G A62G C85A U100C A110U U122C yielded a self-cleavage of 0.7. Work on A67G U100C U108A yielded a self-cleavage of 0. For A96G A114G A118G, the self-cleavage was 0.68. Work on G14U U49A A66G A110G A111G U132A yielded a self-cleavage of 0.01. A24G A30G G50A A91G A116G showed a self-cleavage of 0.15. For A82G U108C U130C, the self-cleavage was 0.02. With U12A A69G U70A the self-cleavage was 0.37. Variant A33G A56G A60G has a self-cleavage of 0.74. A68G A90U A94G U132C gave a self-cleavage of 0.55. In the case of A27G A47G A60U U87C A94G A116U, the self-cleavage is reported as 0.31. Work on A24U U49C U122C yielded a self-cleavage of 0.46. Variant U38G A51G A55G A62G has a self-cleavage of 0.71. U38C A59G A64G gave a self-cleavage of 0.42. For A30G U38C A92G A98G U103C, the self-cleavage was 0.54. Variant A30U A66G A91C A94G U108C U122C has a self-cleavage of 0.01. Variant A47G A67G U122C A135G has a self-cleavage of 0.51. Work on A18U U37C A67G A96G A118G U122C U131C yielded a self-cleavage of 0.28. With U70C U100C U108A the self-cleavage was 0.01. Variant A22G A54G A78G has a self-cleavage of 0.21. U43C A54G A92G showed a self-cleavage of 1.85. A22G A63G A135G A140U showed a self-cleavage of 2.08. Variant U3C A59G A69G A140G has a self-cleavage of 0.49. Work on A63C U120C A140U yielded a self-cleavage of 0.95. Work on U43C A55G A82C A95G A129G yielded a self-cleavage of 0.2. Variant A27G G80A A125G U132C has a self-cleavage of 0.05. Variant U9C A33U A69G A86G A114U has a self-cleavage of 0.09. Work on A51G A66G A86G U87C yielded a self-cleavage of 0.89. With A68G A69G U108C U124A the self-cleavage was 0. Work on A51G A82G A95G yielded a self-cleavage of 0.69. For U12C U19C A54G A110G, the self-cleavage was 0.36. Variant U12C A23G A118G has a self-cleavage of 1.01. Work on A30G A86U A111G U132C yielded a self-cleavage of 0. Work on U2C A66G A69G G79U A92U yielded a self-cleavage of 0.1. U12C U57C U87A showed a self-cleavage of 1.29. Variant U19A U103C A114U has a self-cleavage of 0.05. For A24C U38C A47U U130C, the self-cleavage was 1.13. With A90U A94U U131C the self-cleavage was 2.04. A13U U38C C46A U72A U132C showed a self-cleavage of 0.31. Work on U43A A59G A129G yielded a self-cleavage of 1.04. G8C A64G A82G A111G gave a self-cleavage of 0.09. In the case of A27G A30C U38C A60G U70A A78U, the self-cleavage is reported as 0.09. A23G A30G U37A U49C gave a self-cleavage of 1.05. A22G A36G U38A U49A A56U showed a self-cleavage of 1.11. For A89U U103C U130C, the self-cleavage was 0.68.
